Experimental data reported in the supplement of paper PMC11417369.
The other results are listed elsewhere or left out.

test system: PfAP2-HC AP2 domain (GST-tagged); test: gcPBM binding intensity (ln(normalized median fluorescence intensity)); higher = stronger DNA binding
How it was run: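 Alexa488 anti-GST antibody, scanned at 488 nm, detected GST-tagged P. falciparum DNA-binding domains that had been expressed in E. coli and incubated for 1 h on an Agilent 4 × 180k array. The array carried primer-extended double-stranded 36-bp intergenic genomic probes and negative controls. Binding intensity is the highest Masliner-normalised natural-log median intensity across replicate spots of either orientation of each probe.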

With TATACATATTTACAAGTGCATAATATTTTACAAAAA as the sequence, how does the “gcPBM binding intensity (ln)” value read?
The value was 9.53.

How did the “gcPBM binding intensity (ln)” value turn out when “ATAAAATAAATAAATATAAATATATATATATATATA [TGCATGCA_negctrl_site358]” was run?
Its value is 9.64.

Which “gcPBM binding intensity (ln)” value does the source give for “CACTCTTAAAATAAGGTGCACTATATAACGTGATTA [GTGCAC_site9422]” here?
The value was 9.51.

Which “gcPBM binding intensity (ln)” value does the source give for “TCTTCTAATTTACCTACACACAGGAGATATATAAAT [CACACA_site6276]” here?
The value was 9.7.

With “TATATATATATATATTGTACAAAATATTTATATGTT [XGTACX_site436]” as the sequence, how does the “gcPBM binding intensity (ln)” value read?
Its value is 9.78.

With TAATTAATTTATTAGTTGCACTGTACCATTAGAGTA as the sequence, how does the “gcPBM binding intensity (ln)” value read?
The value was 9.48.

With “GTTCATAAATTAAACACACACACACCCCTGGATACC [CACACA_site3331]” as the sequence, how does the “gcPBM binding intensity (ln)” value read?
Its value is 10.4.

“ATCAACATTATGGTTAGTACTTAGTGAATTGTTAAT [XGTACX_site4926]” was tested. Which “gcPBM binding intensity (ln)” value did it give?
The value was 9.61.

How did the “gcPBM binding intensity (ln)” value turn out when “GTGTAATATATTTTTCGTACATATTATATATATATA [XGTACX_site1675]” was run?
The value was 9.74.

Which “gcPBM binding intensity (ln)” value does the source give for “TTATACACCTTTCATTGTACATATAATTTATATTCT [XGTACX_site8685]” here?
The value was 9.85.

For “AATATTCAATATATATATATATATAATATTAATATA [GTGCAC_negctrl_site571]”, which “gcPBM binding intensity (ln)” value is on record?
Its value is 9.48.

Which “gcPBM binding intensity (ln)” value does the source give for “ATATTTTATTTAATTACACACAATATTGCAATTTGT [CACACA_site669]” here?
Its value is 10.2.

How did the “gcPBM binding intensity (ln)” value turn out when “AAGGATTTTTTATACACACACTAACTAATGTATATA [CACACA_site7163]” was run?
The value was 9.97.

With “TAATACCATAACAAGTGTACATAAATAATTATTGTA [XGTACX_site4949]” as the sequence, how does the “gcPBM binding intensity (ln)” value read?
The value was 9.69.

“TATATTACTTTGTGTTGTACGGAAATATATATATAT [XGTACX_site4309]” was tested. Which “gcPBM binding intensity (ln)” value did it give?
Its value is 9.63.

For “AAAACTATTAAATGTAGTACATAATTATTGAAATAA [XGTACX_site8716]”, which “gcPBM binding intensity (ln)” value is on record?
Its value is 9.66.

“AAATACATATCATGTAGTACATATATATGTAGGTTA [XGTACX_site5392]” was tested. Which “gcPBM binding intensity (ln)” value did it give?
Its value is 9.92.

Which “gcPBM binding intensity (ln)” value does the source give for “ATAATTATTCTTATGGTGCACTGAATATACATGTTG [GTGCAC_site9760]” here?
The value was 9.81.

How did the “gcPBM binding intensity (ln)” value turn out when “ATAGCACATTTTTAAGCACACGTTTATTATATATAT [CACACA_site6084]” was run?
Its value is 9.82.

Which “gcPBM binding intensity (ln)” value does the source give for “CAAAAATATATTTTTTGTACACAAAAAAAAAATAAA [XGTACX_site5229]” here?
The value was 9.64.

With “TTTTTATTGAGATACTTATATAATTTTATGAATAAA [XGTACX_negctrl_site311]” as the sequence, how does the “gcPBM binding intensity (ln)” value read?
The value was 9.16.

How did the “gcPBM binding intensity (ln)” value turn out when “TTTTTTTGCTCTTTTTATATATATATATATATATAT [GTGCAC_negctrl_site70]” was run?
Its value is 9.96.

Which “gcPBM binding intensity (ln)” value does the source give for “TTTGAAAAGTTGAAATGTACACATTTACACATATTT [XGTACX_site1641]” here?
Its value is 9.64.

With “TGTTGTATTTTTACAACACACATTTAATCCATTTAA [CACACA_site1507]” as the sequence, how does the “gcPBM binding intensity (ln)” value read?
Its value is 9.63.

“CTTATATATTGGGATAGTACTTTTAACTAAATAGAA [XGTACX_site5900]” was tested. Which “gcPBM binding intensity (ln)” value did it give?
The value was 9.27.
